The full ranking holds about 33,000 sequences; the median of “E-score (-0.5 to 0.5)” is about -0.054, and the highest 2% start at about 0.39. This is one part of the list.
These sequences were tested against Ylr278c (UniProt Q05854) (assay: PBM E-score (8-mer binding enrichment) (E-score (-0.5 to 0.5)); higher = stronger / more preferred TF binding; most listed sequences are background and not binding sites). Conditions: protein concentration: 200 nM; construct: GST-DNA-binding domain.
Outline: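 Each ungapped eight-base word and its reverse complement, pooled, received an E-score from the Universal PBM Analysis Suite. Underlying scans, normalised with masliner, recorded fluorescent anti-GST bound to GST-tagged yeast transcription factors. These were applied at about 100-200 nM to universal all-10-mer Agilent arrays double-stranded by primer extension.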

| Sequence | PBM E-score |
| --- | --- |
| GGTGGGCA | -0.0418 |
| AAACGTCA | -0.25 |
| ATTCGGTC | 0.083 |
| GAGACAGA | 0.0483 |
| CAACGCGA | 0.0417 |
| ACGGACGC | 0.251 |
| ACCGCGCA | 0.143 |
| GAACGAGA | 0.0584 |
| GTTGGCCA | -0.0678 |
| CCGGCGCG | 0.375 |
| TATGTAAA | 0.0517 |
| ATCATCAG | -0.114 |
| AGTATCAA | -0.0292 |
| CCGCTTCG | 0.116 |
| CGGTTGGA | -0.0594 |
| AACAAGCA | 0.0514 |
| ATTGCAGG | -0.0911 |
| TTTACAAA | -0.181 |
| ATTGAAAT | 0.0209 |
| AGATGGTG | -0.214 |
| ACATAACG | 0.023 |
| CCCCGTGC | 0.295 |
| CCTTTATA | -0.193 |
| TACGACAA | -0.0244 |
| CGCGTACC | -0.0449 |

| Sequence | PBM E-score |
| --- | --- |
| ACCACTCC | 0.317 |
| AGAAGATG | -0.00349 |
| ACAGGTAT | -0.112 |
| GTGCGAAC | 0.0832 |
| AGCCTTTA | -0.156 |
| ATCGCGGA | 0.299 |
| CTACAGTC | -0.194 |
| AGATCCGG | 0.41 |
| CCATGTTC | -0.0504 |
| AAAAGAAT | 0.0663 |
| GACGCGAA | -0.0214 |
| ACGCACGT | -0.0259 |
| ACGATAGA | -0.285 |
| CTGCAGTA | -0.167 |
| TCTAAAAA | -0.0525 |
| ACCTTTTC | -0.212 |
| GTTTGACA | -0.111 |
| CCCGCCGC | 0.314 |
| TGAAAGAA | -0.15 |
| AAGGGGAG | -0.0262 |
| CGGGTAGA | -0.143 |
| CATCACCA | -0.174 |
| ATTTGCGA | -0.0807 |
| CCTCCACG | -0.0547 |
| CTACCGAC | 0.0867 |

| Sequence | PBM E-score |
| --- | --- |
| GCCCAGCC | -0.157 |
| AAAACGGT | -0.139 |
| ATTTTGAC | -0.122 |
| ACTGATCC | -0.109 |
| AACCACCC | -0.0603 |
| GACTATAA | -0.0512 |
| CTGAAACC | 0.0858 |
| AAACAAAT | -0.0381 |
| GCAAAACC | 0.0525 |
| CAATTACG | -0.231 |
| AATCACAG | -0.199 |
| CCCTAGAA | -0.264 |
| CAGAACGG | -0.0676 |
| ACACGTAT | -0.186 |
| CGTCCCGA | 0.106 |
| CGAAATTC | 0.25 |
| AAGTACCT | -0.166 |
| ACGATCAC | -0.0976 |
| ATGCTGGC | -0.147 |
| AATAGCCC | -0.149 |
| ATTGGTTA | -0.0204 |
| CGGAAATA | 0.451 |
| AACTGCTT | -0.0718 |
| ACGCCGCG | 0.29 |
| TACGCGGA | 0.309 |

| Sequence | PBM E-score |
| --- | --- |
| AGAATGTA | -0.0845 |
| CCCGAACA | 0.195 |
| GGTTGCAA | -0.131 |
| ACTGAACA | -0.135 |
| GAGGATAA | -0.0908 |
| TACACATA | -0.114 |
| AGGTAGCG | -0.0627 |
| AGGGCTGA | -0.181 |
| AGCAAGAG | -0.286 |
| GCATATGC | 0.0168 |
| ACGCCGGC | 0.421 |
| AAGTAAAT | -0.00262 |
| CTGCTTTC | -0.0475 |
| ATGGACAC | -0.084 |
| AGGGCCGA | 0.236 |
| CGGTAGCA | -0.0988 |
| ACGCGGCA | 0.101 |
| CAGGATGC | -0.0309 |
| AAGCATGC | -0.372 |
| AGCTGTGC | -0.114 |
| GAAAAGAA | -0.0411 |
| ATTTTCCC | 0.063 |
| GGCACACC | -0.12 |
| CGACTAAG | -0.0283 |
| GTATTTAA | -0.116 |

| Sequence | PBM E-score |
| --- | --- |
| TCTACGAA | -0.28 |
| TCTGCAGA | -0.0892 |
| ATTTGATA | -0.0839 |
| AGCATACT | -0.214 |
| AGATCTAG | -0.266 |
| CCATACTA | -0.138 |
| CTCGTACC | -0.0986 |
| GCCTCGAC | -0.211 |
| ACGTAAGG | -0.264 |
| ATAGATAT | -0.148 |
| ACAACCTG | -0.21 |
| ATACACCA | -0.143 |
| AGTGGGAG | -0.221 |
| AGTGTCGC | 0.0239 |
| CTATGGGA | -0.069 |
| AAGTGCCC | -0.0455 |
| ACCTTTCA | -0.0627 |
| GACGATCC | 0.142 |
| ACGCGGCG | 0.322 |
| GTCCTAGA | -0.112 |
| AAACCATG | -3e-05 |
| TGACGTCA | 0.0129 |
| AGAACAGC | -0.0516 |
| ATCATAGC | -0.0366 |
| GAACTACC | 0.0269 |

| Sequence | PBM E-score |
| --- | --- |
| GAACACGC | 0.152 |
| CTGCTGAC | -0.19 |
| CTAATCTA | -0.00091 |
| GTCAGATA | -0.151 |
| ACGCTCAC | 0.00599 |
| CTGATTGC | -0.0289 |
| GATACAGC | 0.0707 |
| TCTTAAGA | -0.221 |
| AAATCGGG | 0.276 |
| ATATCTAA | -0.121 |
| CTCGGAGA | 0.449 |
| CTCCAATC | -0.0635 |
| GCCCAACC | -0.0501 |
| CAGACACG | -0.0553 |
| ATATTGTC | 0.0929 |
| AAGAGCCT | -0.317 |
| ATGCTAAG | -0.108 |
| AACGTGTG | -0.353 |
| ACGCACTC | -0.00638 |
| AGTAGCAT | 0.024 |
| AAACTTGA | -0.171 |
| AAGACTCA | -0.375 |
| AGTTGCAA | 0.0276 |
| GCCCCCCA | -0.273 |
| ACTTTTCT | -0.13 |

| Sequence | PBM E-score |
| --- | --- |
| ATGCTGCA | -0.178 |
| ACTGCCGA | 0.189 |
| CACACAAC | -0.0809 |
| GCTACAGC | -0.144 |
| GATTGGCC | 0.0281 |
| AAACAGTT | 0.0452 |
| CAATCACG | 0.105 |
| TGTAAGAA | -0.00864 |
| TAACTAGA | 0.038 |
| AATAATGG | -0.0695 |
| CGGTTATC | 0.262 |
| GGTAGATA | 0.0517 |
| ATAAACAG | -0.0729 |
| AACCCGCT | 0.182 |
| ACTGAATA | -0.127 |
| AGAGACCA | -0.294 |
| AACGACTA | -0.117 |
| TCCGGCAA | 0.431 |
| CGAGGTAA | 0.0271 |
| CTTAGGTA | -0.0818 |
| AAATACTT | 0.0145 |
| GGCGTAAC | -0.0749 |
| ATGATACA | -0.101 |
| ACATACGC | 0.0311 |
| TCTCGTAA | 0.0132 |

| Sequence | PBM E-score |
| --- | --- |
| GTATTCAC | 0.125 |
| CCCAGTCG | 0.0852 |
| AAACGTAC | -0.115 |
| ATGCTACG | -0.0841 |
| AATTTCTG | -0.153 |
| GAGCATAA | 0.15 |
| AAATTTAA | 0.0331 |
| ATACGTAG | -0.182 |
| GTTCTGCA | -0.0984 |
| CCGTGCTA | 0.0858 |
| ACTCAGCC | -0.145 |
| CCATAGGC | -0.0663 |
| ACGAGCTG | -0.16 |
| CAAGCGCA | 0.0985 |
| CTTCTGAC | -0.258 |
| ACATGAAC | -0.172 |
| ATCACAGG | -0.301 |
| TGCTCCAA | -0.0383 |
| CCACCAAC | 0.0769 |
| TAAAGACA | -0.186 |
| CGCCTCTC | -0.206 |
| GAATGCTC | -0.0816 |
| CAGGCTGA | -0.19 |
| CTCATAAC | 0.0253 |
| ATGACAAT | -0.184 |

| Sequence | PBM E-score |
| --- | --- |
| ACCGGCGT | 0.3 |
| TCGCTACA | -0.308 |
| ATGAATGC | 0.0522 |
| ACTGCACT | -0.0612 |
| CGCAAAAC | 0.134 |
| CTTGAGAC | -0.0789 |
| CATGACCG | 0.0297 |
| CACGAATG | -0.176 |
| ACGCCTTC | -0.0421 |
| AGACCTCT | -0.198 |
| ATAGGTAA | -0.178 |
| AGTTAATA | 0.0494 |
| AGACAGCT | -0.155 |
| CTCACCGC | -0.0877 |
| GCACCCGC | 0.234 |
| AGGGTGAT | -0.198 |
| CGAATCGC | 0.0481 |
| ATCCTGCG | -0.114 |
| TCCTTCCA | -0.287 |

From the supplement of paper PMC3334620
